# Results from ChEMBL document CHEMBL4888484, “Replenishing the malaria drug discovery pipeline: Screening and hit evaluation of the MMV Hit Generation Library 1 (HGL1) against asexual blood stage Plasmodium falciparum ,using a nano luciferase reporter read-out” (2022).
# Hit rate of the full screen: of about 150,000 compounds, about 540 (0.36%) showed an effect of 50% or more. The list shows a part of the results.
# Test system: Plasmodium falciparum
# Test: Primary screen in NF54 nanoGlo assay, in single point, at 2uM, 72h; a lower Z score goes with more inhibition
# Assay type: functional, Erythrocyte
# Conditions: timepoint 72 hour
SMILES,% Inhibition [%],Z score
Cn1cc(-c2ccc(F)cc2)cc1C(=O)NCc1cccs1,7,-1.08
O=C(NCC1(C2(O)CCC2)CC1)[C@@H]1CCCc2[nH]nnc21,-3,0.59
COc1cc2c(cc1F)CN(Cc1nnc(C)s1)CC2,-9,1.46
CCc1nnsc1C(=O)N(Cc1ccc2c(c1)CCO2)C1CCCC1,-5,0.69
O=C(NCC1(Cc2ccc(F)cc2)CCCC1O)c1cnns1 (stereo not given),0,-0.02
Cc1cccc(CN(Cc2ccccn2)C(=O)c2cnsn2)c1,-1,0.19
CCN(CC)c1ccc(CNC(=O)c2cccnc2O)cc1F,-2,0.26
O=C(c1cccc(CO)c1)N1CCC[C@H](c2ccncc2)CC1,-5,0.95
N#Cc1ccc(C(=O)N2CCC3(CCC(=O)N(Cc4ccccn4)C3)CC2)cc1,-2,0.37
COc1cc2c(cc1OC)C(NC(=O)[C@H](C)N1Cc3ccccc3C1=O)CC2 (stereo not given in full),6,-0.75
CC1CN(C(=O)c2cn(Cc3cccs3)nn2)CC1N(C)C (stereo not given),-14,1.4
Cc1ccc(NS(=O)(=O)c2ccc3c(c2)sc(=O)n3CCC(=O)N2CCCCC2)c(Cl)c1,9,-1
CCCn1nc2nc(Nc3ccc(F)c(C)c3)cc(C)n2c1=O,-15,1.65
Cn1c(-c2ccc(Br)cc2)cn2cc(-c3cccc(Cl)c3)nc12,-1,0.08
COCCNC(=O)C(=O)NCCc1ccc(OC)cc1,-13,2.07
COc1cccc(CC(=O)Nc2ccc3c(c2)CCN(C)C3=O)c1,0,0.07
Cc1nc(CN(CC(=O)N2CCOC3CCCCC32)C(C)c2ccc(Cl)cc2)oc1C (stereo not given),-1,0.1
CCn1nc(C)nc1NC(=O)N[C@H]1CCN(CC(F)F)C1,6,-0.73
CCCCOCC(=O)Nc1cc(F)ccc1Br,-7,0.71
CCOC(=O)[C@H]1CCCN(C(=O)c2cc(NC(C)=O)c3c(c2)ncn3CCc2ccccn2)C1,10,-1.27
Cc1ccc(C(=O)N2CCC3(CCC(=O)N(Cc4ccccc4)CC3)CC2)cc1,4,-0.51
CCCn1nccc1-c1cc(N2CCCC2)nc(N)n1,-13,2.22
CC(C)(C)c1ccc(NC2CCN(CCN3CCOCC3)CC2)cc1,-19,1.93
O=C(c1ccc(C2CC2)nc1O)N1CC2(CC2)C1,-3,0.28
CC(C)N1C(=O)CO[C@H](c2ccc(NC(=O)C3CCOCC3)cc2)[C@H]1CO,2,-0.28
Cn1ccnc(N2CCOc3ccc(F)cc3C2)c1=O,-15,1.98
Cc1cnc(C2CCN(C(=O)CCCc3ccccc3)CC2)n1CCO,-5,0.77
C[C@H]1CN(C(=O)c2cccc3ncn(C)c23)C[C@@H]1CS(N)(=O)=O,-2,0.36

SMILES,% Inhibition [%],Z score
COc1ccc(CN(C(=O)OC(C)(C)C)C2CCC(C(=O)N3CCO[C@@H](COc4ccc(C)cc4)C3)CC2)cc1C (stereo not given in full),-1,0.13
Cc1nnc(CN2CCC[C@H]2c2ncn[nH]2)s1,-8,1.61
C[C@@H](N)C(=O)N1CCc2c(F)cc(F)cc21,-15,2.35
Cc1noc(C)c1NS(=O)(=O)c1ccc2c(c1)CC(=O)N2,1,-0.1
CC1(C)CN(C(=O)c2ccc(N3CC(=O)NC3=O)cc2)C[C@@H]1c1ccccc1,-15,2.37
Cc1cc(C)c(CC(=O)N2CCCS(=O)(=O)C[C@H]2C2CC2)s1,-5,0.92
Cc1ccc(-c2n[nH]cc2CN2CCC[C@@](F)(C(=O)N3CCOCC3)C2)cc1,-30,2.67
Cc1cccc(C)c1OC[C@H](NCc1nnn(C)n1)c1ccccc1,9,-1.78
COc1ccc(S(=O)(=O)N[C@H]2CC[C@H](Oc3ncc(F)cn3)CC2)cc1,-8,1.4
CC[C@@]1(C)Cc2ccccc2-c2[nH]c(=O)n(Cc3ccco3)c(=O)c21,-9,1.02
CC(C)c1noc(CN2CCC(NC(=O)c3cnn(C)c3)CC2)n1,-9,1.54
C=CCCC(=O)NC[C@H](O)c1cc(C)oc1C,-12,1.94
COc1cccc(C(=O)NCc2ccc3c(c2)CCN3C(C)=O)c1,-2,0.45
Cc1ccsc1C(=O)N1CC[C@@H](NC(=O)c2cccnc2)[C@@H](CO)C1,-7,0.88
CC1CN(S(=O)(=O)N(C)Cc2ccsc2)CC(C)O1 (stereo not given),-7,1.03
c1nc(OC2CCC2)c2sccc2n1,-3,0.42
CC[C@@H](NC(=O)c1cnc(OCC2CC2)cn1)C(N)=O,-10,1.13
O=C(CCC1CCCC1)NCCCNC(=O)CCC1CCCC1,-2,0.24
Cc1cc(Cl)ccc1NC(=O)N1C[C@@H](F)C[C@H]1C(=O)N1CCc2ccccc2C1,-11,1.44
Cc1ccc(-c2cc(C)nc(N3CCOCC3)n2)c(-n2nc(C)cc2C)c1,12,-2.27
Cc1cc(-c2ccccc2C(N)=O)c(C)c2sc(N)nc12,-9,1.48
Cn1c(=O)[nH]c(=O)c2[nH]c(CCc3nc4ccccc4[nH]3)nc21,5,-0.71
CCCN(CCC)CCOC(=O)c1sc(C)nc1C,-4,0.57
COc1ccc(C2=NOC(CNC(=O)CN3CCCC3C)C2)cc1F (stereo not given),-7,1.13
OC[C@H](Nc1ccncn1)[C@@H](O)c1ccccc1,-1,0.11
Cc1nc(-c2csc(S(=O)(=O)NC3CCCCCC3)c2)no1,-2,0.19
CCCc1nccn1-c1cc(O)c(F)c(F)c1,-7,1.01
